{"source": "the supplement of paper PMC11417369", "note": "Some of the results follow.", "data": [{"tested_on": "PfAP2-HC AP2 domain (GST-tagged)", "assay": "gcPBM binding intensity (ln(normalized median fluorescence intensity)); higher = stronger DNA binding", "in_short": "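The binding buffer was 1× PBS containing 1% milk, 0.2 mg/ml BSA, 0.5% salmon testes DNA and 0.03% Triton X-100. In it, GST-tagged P. falciparum DNA-binding domains expressed in E. coli were applied for 1 h to an Agilent 4 × 180k array of primer-extended double-stranded 36-bp intergenic genomic probes plus negative controls. Binding intensity, read with Alexa488 anti-GST antibody and a 488 nm scan, is the highest Masliner-normalised natural-log median intensity across replicate spots of either probe orientation.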", "values": [{"sequence": "TACTGATCCACATTTATACACACCTCGGTTTGTAGA [CACACA_site417]", "gcPBM binding intensity (ln)": 9.74}, {"sequence": "TTTTTAAATATATAATAGAATTGATTGTATTATATA [CACACA_negctrl_site196]", "gcPBM binding intensity (ln)": 9.46}, {"sequence": "TATAGATTCTTTTAATGTACATGTCTTTTCATTTCC [XGTACX_site8348]", "gcPBM binding intensity (ln)": 9.62}, {"sequence": "ATATAAAAAAAAAAAAAAAAATATATATATATATAT [GTGCAC_negctrl_site251]", "gcPBM binding intensity (ln)": 9.25}, {"sequence": "TTGGTTTGAAAGAAAGAAATTATTAAAAAGGAAATA [CACACA_negctrl_site26]", "gcPBM binding intensity (ln)": 9.26}, {"sequence": "GATATACTGTCAATTCTACACACCATAGGGGGAGCA [CACACA_site8562]", "gcPBM binding intensity (ln)": 10.3}, {"sequence": "ATCATAACACCTCCACACAAATAAATATAACATATA [XGTACX_negctrl_site269]", "gcPBM binding intensity (ln)": 9.87}, {"sequence": "ATGAGTGCACAAATATATATATATATATATATATAT [CACACA_negctrl_site404]", "gcPBM binding intensity (ln)": 10.6}, {"sequence": "CTTTTTATTAAATATGCATGTGTATCAACAGTGAAT [TGCATGCA_site447]", "gcPBM binding intensity (ln)": 9.5}, {"sequence": "GTTATACGCATATATACACACATATGTAAATATATA [CACACA_site3280]", "gcPBM binding intensity (ln)": 9.86}, {"sequence": "TAAAAAAAATAGCATACACACATATATACCTATATA [CACACA_site4535]", "gcPBM binding intensity (ln)": 9.97}, {"sequence": "AAACAATTTATGTGTAGTACATGTTGGAGATAATTT [XGTACX_site6000]", "gcPBM binding intensity (ln)": 9.74}, {"sequence": "GAAAATATATTATTTACACACATGTTCAAATTAAAA [CACACA_site3761]", "gcPBM binding intensity (ln)": 9.61}, {"sequence": "TATTAAATATAAGTCACACATAATTTTTCGTCCTTT [CACACA_site5065]", "gcPBM binding intensity (ln)": 9.62}, {"sequence": "CATACACCCGGACACACACACACACCCATATATAAT [CACACA_site4494]", "gcPBM binding intensity (ln)": 10.5}, {"sequence": "TTGTTTTTTTCTTTTTGTACATATACAACATACATA [XGTACX_site8996]", "gcPBM binding intensity (ln)": 9.78}, {"sequence": "ATATATATATATATATGTACATATATTTTCTTTTTG [XGTACX_site6017]", "gcPBM binding intensity (ln)": 9.6}, {"sequence": "TTGTTCTATAATTATACATGCATTAACAGAGTAAAA [TGCATGCA_site909]", "gcPBM binding intensity (ln)": 9.46}, {"sequence": "AAAAACGATTAATGTGTACACACATAGTTATAAACA [CACACA_site8659]", "gcPBM binding intensity (ln)": 9.99}, {"sequence": "TTTTTTTTTTTTTAATGTACAAATATGGTGACAAAA [XGTACX_site8709]", "gcPBM binding intensity (ln)": 9.3}, {"sequence": "AGGATAACATACAAAAGTACATAAAACTAAAAAAAC [XGTACX_site26]", "gcPBM binding intensity (ln)": 10.1}, {"sequence": "TATATATATTTTTGAAGTACTTATTACACTAGCATT [XGTACX_site8965]", "gcPBM binding intensity (ln)": 9.69}, {"sequence": "AAGAAAATATAACAAAGTAAAAACATATTATATATA [TGCATGCA_negctrl_site248]", "gcPBM binding intensity (ln)": 9.62}, {"sequence": "TATATTTTGTTTTTGTGTACATATTGGTAGTTATTT [XGTACX_site7659]", "gcPBM binding intensity (ln)": 9.74}, {"sequence": "AAAAATAGTCTTCTTGCACTTTTTAATTTATTTTAA [CACACA_negctrl_site1322]", "gcPBM binding intensity (ln)": 9.35}, {"sequence": "TGATTATCCTATATATATTTCATAATGGAAAAAAAT [TGCATGCA_negctrl_site444]", "gcPBM binding intensity (ln)": 9.15}, {"sequence": "AATGTGGTATTTACAAAAAGGCTTTATACTTAAAAA [XGTACX_negctrl_site566]", "gcPBM binding intensity (ln)": 9.27}, {"sequence": "CTTTTCATCTTCTTAACACACAAAAAAAAAAAAAAA [CACACA_site3886]", "gcPBM binding intensity (ln)": 9.24}, {"sequence": "AAAATTCAGCGAAAGGGTACATATGTGTAAGGGTAA [XGTACX_site8205]", "gcPBM binding intensity (ln)": 10}, {"sequence": "TATATTTATATACCAACACACATACATATTTATATA [CACACA_site6931]", "gcPBM binding intensity (ln)": 10}, {"sequence": "CTATTATATCAGTAGACACACATATAACATTTATAT [CACACA_site141]", "gcPBM binding intensity (ln)": 9.87}, {"sequence": "AATGTGCTCGCTATTACACACTCATTGGGATAAAAT [CACACA_site8627]", "gcPBM binding intensity (ln)": 9.61}, {"sequence": "AGTAACAATTATTATGCATGTACAAATAATCATTTT [TGCATGCA_site867]", "gcPBM binding intensity (ln)": 9.71}, {"sequence": "ATCTTATATTATCACACACACACGCACAAAACAGAA [CACACA_site1463]", "gcPBM binding intensity (ln)": 10.3}, {"sequence": "TTTATTAAACTTGACACACACACACCCACATATATA [CACACA_site760]", "gcPBM binding intensity (ln)": 10.2}, {"sequence": "ATATTATATAGAAACACACATACACATGTAAATATA [CACACA_site2037]", "gcPBM binding intensity (ln)": 10.1}, {"sequence": "ATGGATTTTACCATAGCACACATATATGAATATTTT [CACACA_site8535]", "gcPBM binding intensity (ln)": 9.7}, {"sequence": "ATATAGAAAATGCATACACACTTTATATATATATTT [CACACA_site4658]", "gcPBM binding intensity (ln)": 9.9}, {"sequence": "TAATTATTTCGTATATTTGAATGGTACATGCTTATA [CACACA_negctrl_site1178]", "gcPBM binding intensity (ln)": 9.48}, {"sequence": "ATTCATATCTACTTCACACACATTTGATCATTCAAA [CACACA_site7207]", "gcPBM binding intensity (ln)": 9.98}, {"sequence": "ATAGTATTTTTTATTACACACAAATAAAAAGAAAAA [CACACA_site2087]", "gcPBM binding intensity (ln)": 9.74}, {"sequence": "ATGAAACAGTAACATTGTACTTTTACAAAAAAATAA [XGTACX_site806]", "gcPBM binding intensity (ln)": 9.61}, {"sequence": "AAAATCTATATTAACACACACACAAAAAAAAAAAAA [CACACA_site6738]", "gcPBM binding intensity (ln)": 10.6}, {"sequence": "TTTAAAAAAAATATGTGTACTTAATATTTTCATATA [XGTACX_site7421]", "gcPBM binding intensity (ln)": 9.34}, {"sequence": "TACATATAAATAATAACACACACCTAGGTACATGGA [CACACA_site838]", "gcPBM binding intensity (ln)": 10.4}, {"sequence": "CATACACAGAAACACACACACATATATATATATATA [CACACA_site4519]", "gcPBM binding intensity (ln)": 10.2}, {"sequence": "AGAAAGGAGGAAATAAAAGGACTTCTTTTTTTATAT [CACACA_negctrl_site810]", "gcPBM binding intensity (ln)": 9.4}, {"sequence": "TTTCATTTCACAGACACACACACACCCTATATTTCC [CACACA_site3906]", "gcPBM binding intensity (ln)": 11.2}, {"sequence": "ATATATTTTATATAGTGTACTTTAATTTTTTTTTTT [XGTACX_site5550]", "gcPBM binding intensity (ln)": 9.47}, {"sequence": "ATTTTTTTTTTTTTTGAACACACATTATTAATTTTT [CACACA_site7990]", "gcPBM binding intensity (ln)": 9.94}, {"sequence": "ATAAATAAAACAAAATGTACAAATATTCATATATTC [XGTACX_site1307]", "gcPBM binding intensity (ln)": 9.8}, {"sequence": "ATATATATATATGTTAGTACTTATATTGAAATGGTA [XGTACX_site1406]", "gcPBM binding intensity (ln)": 9.67}, {"sequence": "TTATTTACCTATTATAGTACATATAATTAATATAAT [XGTACX_site5724]", "gcPBM binding intensity (ln)": 9.6}, {"sequence": "ATCTTTCGTACATGTACACACAGAAAAAAAAAAAAA [CACACA_site2502]", "gcPBM binding intensity (ln)": 9.64}, {"sequence": "GTTCCCATAAATAAATGTACATATTATATATATATA [XGTACX_site3242]", "gcPBM binding intensity (ln)": 9.68}, {"sequence": "GTGTAATCATATAAGGGTACAAAAAATGTCTAACAA [XGTACX_site8122]", "gcPBM binding intensity (ln)": 9.63}]}]}
